The values that follow come from paper PMC7568541, “Multivalent interactions drive nucleosome binding and efficient chromatin deacetylation by SIRT6” (Nature Communications, 2020).

As a reminder, the Kd is the constant that tells how readily two partners part at equilibrium. Read a low Kd as tighter binding.

In this experiment the target is T1, SIRT6 (full-length, His-tagged) (UniProt Q8N6T7).
T1 construct: SIRT6 (NAD+-dependent deacylase), full-length; 355 residues by the printed limits of the CTD (270–355); pQE80 vector; also called full-length SIRT6; wild-type SIRT6; source: E. coli BL21(DE3), purified (nickel chromatography, Heparin column)
Briefly: fluorescence polarisation; fluorescence anisotropy of 100 nM SIRT6^(Py) titrated with unlabeled SIRT6; 20 mM Tris, 150 mM KCl, 2 mM MgCl2, 0.5 mM TCEP, 1% glycerol, pH 7.5; self-oligomerization constant. The settings on record: both partners purified. Background: In fluorescence polarisation assays a small probe gives low polarisation when free and higher when bound to something large.

B1: SIRT6 labeled with pyrene at cysteine 18 (enzyme)
chain: not shown
modifications: pyrene on cysteine 18
notes: SIRT6 with C320 mutated to serine so that only C18 is labelled; 60% labeling efficiency; C320S follows from 'we mutated either C18 or C320 to serine, leaving the other available'; also called SIRT6^(Py); source: E. coli BL21(DE3), purified (nickel chromatography, Heparin column), labelled with pyrene
In the case of B1, the Kd came to 14 µM.
